Laboratory results taken from PMC6758638.
No constants are given. Whether binding was seen depends on the method and setting. In cells and extracts the contact can be indirect. Some entries that bind do so weakly or less than the wild type.

By UniProt entry, the sequences of proteins in these tests, tags left out. Residues count along the entry.
UniProt P18272, residues 1-600: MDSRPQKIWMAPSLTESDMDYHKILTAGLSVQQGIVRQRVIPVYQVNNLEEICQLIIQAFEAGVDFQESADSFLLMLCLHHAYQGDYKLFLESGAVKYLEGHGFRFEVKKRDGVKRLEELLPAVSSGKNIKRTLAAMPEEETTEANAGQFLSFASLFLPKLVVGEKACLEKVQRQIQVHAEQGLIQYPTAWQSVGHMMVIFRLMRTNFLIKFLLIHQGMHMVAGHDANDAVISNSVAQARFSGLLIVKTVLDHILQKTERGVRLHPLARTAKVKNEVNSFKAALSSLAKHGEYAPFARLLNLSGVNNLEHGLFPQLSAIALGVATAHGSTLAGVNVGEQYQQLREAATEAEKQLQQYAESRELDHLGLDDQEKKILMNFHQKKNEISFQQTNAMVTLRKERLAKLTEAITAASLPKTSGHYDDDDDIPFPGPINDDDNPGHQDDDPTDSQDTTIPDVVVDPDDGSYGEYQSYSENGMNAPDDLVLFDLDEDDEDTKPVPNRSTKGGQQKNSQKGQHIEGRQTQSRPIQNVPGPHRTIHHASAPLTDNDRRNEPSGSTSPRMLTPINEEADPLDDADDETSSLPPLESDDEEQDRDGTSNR

Target: NP-F([change]) (Zaire ebolavirus (strain Mayinga)) (UniProt P18272)
Experiment: co-IP

B1: SET and MYND domain-containing protein 3, endogenous (protein, UniProt Q9H7B4 1-428)
chain: MEPLKVEKFATAKRGNGLRAVTPLRPGELLFRSDPLAYTVCKGSRGVVCDRCLLGKEKLMRCSQCRVAKYCSAKCQKKAWPDHKRECKCLKSCKPRYPPDSVRLLGRVVFKLMDGAPSESEKLYSFYDLESNINKLTEDKKEGLRQLVMTFQHFMREEIQDASQLPPAFDLFEAFAKVICNSFTICNAEMQEVGVGLYPSISLLNHSCDPNCSIVFNGPHLLLRAVRDIEVGEELTICYLDMLMTSEERRKQLRDQYCFECDCFRCQTQDKDADMLTGDEQVWKEVQESLKKIEELKAHWKWEQVLAMCQAIISSNSERLPDINIYQLKVLDCAMDACINLGLLEEALFYGTRTMEPYRIFFPGSHPVRGVQVMKVGKLQLHQGMFPQAMKNLRLAFDIMRVTHGREHSLIEDLILLLEECDANIRAS
For B1, the binding was “binds”.
